This passage reports binding signal results from paper PMC12136788.

The list shows a part of the results.

T1: UNK ZnF1-6 (called full-length) (human, UniProt Q9C0B0 30-357)
T1 sequence: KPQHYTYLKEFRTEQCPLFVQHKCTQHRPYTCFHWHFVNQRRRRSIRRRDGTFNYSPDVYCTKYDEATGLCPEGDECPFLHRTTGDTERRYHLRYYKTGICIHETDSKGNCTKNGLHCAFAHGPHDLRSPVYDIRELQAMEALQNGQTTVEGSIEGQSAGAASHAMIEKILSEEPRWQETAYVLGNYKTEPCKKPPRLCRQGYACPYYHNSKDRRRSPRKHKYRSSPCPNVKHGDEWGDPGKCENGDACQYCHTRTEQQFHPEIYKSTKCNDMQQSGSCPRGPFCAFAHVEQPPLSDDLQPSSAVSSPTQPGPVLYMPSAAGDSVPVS

B1: chr10:122937732:122937852:-|CDS|ENSG00000119965|unk|total|mutant (ssRNA)
RNA: GGGAGUUCUACAGUCCGACGAUCGUAAGUGACAACUCAAAUAUACCCAACUCCGAGUUGCUGCCUUUUCUCCAGAAUUUAUGCCGUCAAGUUAAUCAUCUCCAUGUGGGAAAUAAGACCGAGUGUCAGGAAAACAUCACCAAGCAACAGAGGAUUGAGCAUCA
B2: chr2:200490383:200490484:-|CDS|ENSG00000155729|msi1|total|mutant (ssRNA)
RNA: GGGAGUUCUACAGUCCGACGAUCUCUCCAGCCAGUGCCAUCCAGACGUCGGCUGGGGCGACAGCAAACCGGUUUCAAAGUGGCCGCCGCAGAAAGGCAGCUCAGCGCUCUGCACCUUCCAGAGCCACGGCCCUGGUGGGCACGCAACAGAGGAUUGAGCAUCA
B3: chr7:108149816:108149915:-|CDS_3pUTR|ENSG00000091129|msi1_unk|total|mutant (ssRNA)
RNA: GGGAGUUCUACAGUCCGACGAUCGUCAACGCCAUGAAUUCCUUUGUUUAAUUUUUAAGCUCUUUGCCAAUAUUCCAUUUCUCCCGAAUGUUUAUCCUAAGCACUUGUUUGUCAGCCCUCUCAUACUAUGAACAUAUGGGCCGACAACAGAGGAUUGAGCAUCA
B4: chrX:13662881:13662996:+|CDS|ENSG00000176896|unk|total|mutant (ssRNA)
RNA: GGGAGUUCUACAGUCCGACGAUCUCGAAUUCUCUGUCUUCCCAAGACGUUGCAAAACUCAGUGAAAUGAUUGUGCCUGAAAACCGAGCCAUUCAAUUGAAACCUAAGGAAGAGCAUUUUGGGGAUGGUGACCCUGAAUCCACUCAACAGAGGAUUGAGCAUCA
B5: chrX:24560996:24561098:-|3pUTR|ENSG00000102230|unk|total|mutant (ssRNA)
RNA: GGGAGUUCUACAGUCCGACGAUCACUCAAGACUUUUUACAGAGAACUGUGGGCUCAGUUAUGAUCUCAGCAUCUGAAUGGUCCCGGCCGUAUCACCAUUAUCUCUGGCCCCCGGUUUGCCAAGCCGGAUGAAGACUCUAAGUGCAACAGAGGAUUGAGCAUCA
B6: ENSG00000196628:stop:overlap|stop_codon|ENSG00000196628|stop_codon|NA|stop_codon (ssRNA)
RNA: GGGAGUUCUACAGUCCGACGAUCCAACCUCCACCUCCCAGGUUCAAGCUAUCCUCCUGCCUCAGCCUCCUGAGUACCCGGGAUAGGCGUUUGUGUGAUUUUGCUAAAAUGCAUCACCAACAGCGAAUGGCUGCCUUAGGGACGCAACAGAGGAUUGAGCAUCA
B7: chr6:36232219:36232320:+|3pUTR|ENSG00000096070|unk|total|mutant (ssRNA)
RNA: GGGAGUUCUACAGUCCGACGAUCGCCCGGGAAGGACAUGGUGUAUAUAAUUGUAAAAUACUGUUCUAAAUUAUUCAGGCCUACCGUUUCCAUUACUGGAGUCCUCCAUUGUGUGGCCACACAGUGUCGUUGAUUUAAAGGAGCCAACAGAGGAUUGAGCAUCA
B8: ENSG00000070961:be:win_2601|CDS|ENSG00000070961|bound_else_gene|NA|bound_elsewhere_windowed (ssRNA)
RNA: GGGAGUUCUACAGUCCGACGAUCGAUUGUUGCUUUUACGGGCGCCUGCAUUACUCAAGACUCACCGCUUAAGGCUGUGCAGAUGCUGUGGGUAAACCUCAUAAUGGAUACACUCGCUUCCCUGGCUCUGGCAACGGAACCACCCAACAGAGGAUUGAGCAUCA
B9: chr12:111449306:111449407:+|3pUTR|ENSG00000111252|msi1|total|mutant (ssRNA)
RNA: GGGAGUUCUACAGUCCGACGAUCGCUGGCUUGGUGCCCUCCAAGCAUCUAAUGGCUUAUUAAAUUAUCCCACAAGUGGGUUUCCGGCUCCUUUUUUGAGCCAAAAUGGAAGCUGGGAAUCUGGUGCCAUAACUAAUGAGAAACCAACAGAGGAUUGAGCAUCA
B10: ENSG00000136451:be:win_4001|3pUTR|ENSG00000136451|bound_else_gene|NA|bound_elsewhere_windowed (ssRNA)
RNA: GGGAGUUCUACAGUCCGACGAUCGUCAUGUCUUCUUUUGGGAGGGAGAGAGUCGAUGGCAGGAGGGGGUUUUGGGUGGGCCACUGAAAAGGGGUACCGAAUAGGUUGUGUGAUGAAAUUCUGUGUCUUGGAACUGGAAUUGAGCAACAGAGGAUUGAGCAUCA
B11: chrX:71240429:71240530:-|3pUTR|ENSG00000147130|msi1|FALSE|unique (ssRNA)
RNA: GGGAGUUCUACAGUCCGACGAUCGGCUUUGGGUUUCCUGACCCAUCCCGCAUAGGUAGAGCCUCUUGUUCCUAGGCAUGACCUAGGGAAAAACCCAGCUGCCUUCUCUGCCCUGUGCCCACUCCCUUCUCUACUCUUCCCCAGCAACAGAGGAUUGAGCAUCA
B12: chr10:78022286:78022401:-|CDS|ENSG00000148606|unk|total|mutant (ssRNA)
RNA: GGGAGUUCUACAGUCCGACGAUCAACACCGUAUCUCCAUUUCUGCCUUUCUUCGUUUCCACCGGAAAACUUGAAUCCCUCCGCCGUUCUGAAUUUAUUUAAACGAAUCCCAGCUGAAGAUGUUCCUCUACUUCUGAUGAACCCCAACAGAGGAUUGAGCAUCA
B13: chr12:20680103:20680206:+|CDS|ENSG00000172572|unk|FALSE|unique (ssRNA)
RNA: GGGAGUUCUACAGUCCGACGAUCCUUACAGAACCACAAGAUGUGGAAGAAAGUCAUUGAAGAGGAGCAACGGUUGGCAGGCAUAGAAAAUCAAUCCCUGGACCAGACCCCUCAGUCGCACUCUUCAGAACAGAUCCAGGCUAUCAACAGAGGAUUGAGCAUCA
B14: chr19:17405403:17405546:-|CDS|ENSG00000130303|unk|total|mutant (ssRNA)
RNA: GGGAGUUCUACAGUCCGACGAUCUGACUAUUGCAGAGUGCCCAUGGAAGACGGGGAUAAGCGCUGUAAGCUUCUGCUGGGGACCGGAAUUCUGGUGCUCCUGAUCAUCGUGAUUCUGGGGGUGCCCUUGAUUAUCUUCACCAUCAACAGAGGAUUGAGCAUCA
B15: chr7:41967724:41967825:-|CDS|ENSG00000106571|msi1|total|mutant (ssRNA)
RNA: GGGAGUUCUACAGUCCGACGAUCCCCCAUCAGCAACUAUUCCAACAGUGGGCUCGAGCUUCCUCUGACCGAUGGAGGCCGUACCGGAGACCUCAGUGCCAUCGAUGAAACCCCAAUCAUGGACUCAACCAUUUCCACUGCAACCAACAGAGGAUUGAGCAUCA
B16: chr4:127885990:127886091:+|CDS|ENSG00000142731|msi1|FALSE|unique (ssRNA)
RNA: GGGAGUUCUACAGUCCGACGAUCAUUACUUAUCGGGAGACCACCCUUCGACACUGACACAGUCAAGAACACAUUAAAUAAAGUAGUAUUGGCAGAUUAUGAAAUGCCAUCUUUUUUGUCAAUAGAGGCCAAGGACCUUAUUCACAACAGAGGAUUGAGCAUCA
B17: chr8:97276997:97277102:-|CDS|ENSG00000180543|unk|total|mutant (ssRNA)
RNA: GGGAGUUCUACAGUCCGACGAUCAUCCCGGGCUUCUGGGGGCAAGCAUUUCAGAACCAUCCCCAGCCCGCAUCCUUUCUGAACCGCCAAGAGAAAGAGGUACUGAGCUACUUAAACAGCUUGGAAGUGGAAGAGCUCGGCCUUCAACAGAGGAUUGAGCAUCA
B18: chr10:123166816:123166917:+|3pUTR|ENSG00000154473|unk|FALSE|unique (ssRNA)
RNA: GGGAGUUCUACAGUCCGACGAUCAAAAACUUAAAGGUAUAUUAGCAGGUUAGCCUUUGUUCUGUGGGAGAUCCAGGCCUUGUUAGAAGGACCAAGGCCAGAAUGCCCAGUUUAGCCUUAGCAUUCAAACCCUUCAUUGUUUUUCAACAGAGGAUUGAGCAUCA
B19: chr5:147393764:147393895:-|3pUTR|ENSG00000113657|msi1_unk|FALSE|overlapping (ssRNA)
RNA: GGGAGUUCUACAGUCCGACGAUCUCCAAUGUUACGCUCGCUUGCCUAGCUUUACGAAUAUUGCUUUGUUUUCUGUUUAUGCAUAGCCUUGAUUUGUUUGACUCCCCUCCCCCCAUUUACAUGCAUGCAAUCAGACAGGCCACUCAACAGAGGAUUGAGCAUCA
B20: chr7:36452941:36453042:+|3pUTR|ENSG00000011426|msi1|FALSE|unique (ssRNA)
RNA: GGGAGUUCUACAGUCCGACGAUCGUCUUGAAGCAGCAACGUCUUUCAGGGGUUGGAGACAGAAACCCAUUCUCCAAUCUCAGUAGUUUUUUCGAAAGGCUGUGAUCAUUUAUUGAUCGUGAUAUGACUUGUUACUAGGGUACUCAACAGAGGAUUGAGCAUCA
B21: chr19:42297191:42297292:-|CDS|ENSG00000079462|unk|FALSE|unique (ssRNA)
RNA: GGGAGUUCUACAGUCCGACGAUCCCGACAGGUGAACGAGCUGGUACGGGCGGCACUGGCUGGCCACCCUCGGGCCCACUUCCUAGAUGCCGACCCUGGCUUUGUGCACUCAGAUGGCACCAUCAGCCAUCAUGACAUGUAUGACAACAGAGGAUUGAGCAUCA
B22: chr10:80519475:80519574:+|3pUTR|ENSG00000108219|msi1_unk|total|mutant (ssRNA)
RNA: GGGAGUUCUACAGUCCGACGAUCAGUGUGGUGUAUACUGGUGGCUGUUGAUGAUGAUUUUUUUUUUUUUACACAAUUCUCUGCCGACCCGGAGAAGAAUGCUUGUGUUUUUCGGAAGUGUGAUGCUUCUCUUUGACUGCCAAACAACAGAGGAUUGAGCAUCA

This test addresses T1, UNK ZnF1-6 (called full-length). Kind of test: nsRBNS (natural sequence RNA bind-n-seq); RBNS binding buffer (assumed for nsRBNS): 25 mM Tris pH 7.5, 150 mM KCl, 3 mM MgCl2, 0.01% Triton X-100, 500 ug/ml BSA, 20 U/ml SUPERase-In, 4 C; UNK is unkempt and MSI1 is Musashi-1; names of the RNAs are library labels; protein concentration not given here; high values mean tight binding.
The molecule B1 came in with a binding signal of 0.479 enrichment R.
Take B2: the binding signal was found to be 0.605 enrichment R.
Under B3 stands 1.19 enrichment R.
As for B4, the binding signal stood at 0.441 enrichment R.
Regarding B5, the binding signal was 0.574 enrichment R.
Under B6 stands 0.325 enrichment R; under B7, 0.743 enrichment R; under B8, 0.556 enrichment R.
Turning to B9, the binding signal amounted to 0.551 enrichment R.
Under B10 stands 1.21 enrichment R; under B11, 0.88 enrichment R.
Under B12 stands 0.399 enrichment R; under B13, 0.691 enrichment R.
Under B14 stands 0.908 enrichment R.
Consider B15, for which the binding signal is 0.64 enrichment R.
With B16, the binding signal came out at 1.26 enrichment R.
Under B17 stands 0.553 enrichment R; under B18, 0.847 enrichment R.
Under B19 stands 0.696 enrichment R; under B20, 0.713 enrichment R; under B21, 0.764 enrichment R.
Under B22 stands 0.482 enrichment R.
